Reference: PubChem BioAssay AID1240 (Sanford-Burnham Center for Chemical Genomics, 2008)
Among all 50,000 compounds or so, about 800 (1.6%) showed an effect of 50% or more. The list shows a part of the results.

What follows are compounds tested against Bcl-2-like protein 10 (Homo sapiens) (UniProt Q9HD36) (assay: Phenotype converters, Bcl-B/TR3 peptide binding displacement, primary biochemical FP (AID 1240;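 note: 0% = Bcl-B with tracer peptide and DMSO and 100% = tracer peptide lacking Bcl-B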)). Conditions: GST-Bcl-B / FITC-TR3 peptide fluorescence polarization; stronger effect = higher value; compound at 3.75 mg/L.
Sequence of UniProt Q9HD36 (Q9HD36 whole entry, looked up): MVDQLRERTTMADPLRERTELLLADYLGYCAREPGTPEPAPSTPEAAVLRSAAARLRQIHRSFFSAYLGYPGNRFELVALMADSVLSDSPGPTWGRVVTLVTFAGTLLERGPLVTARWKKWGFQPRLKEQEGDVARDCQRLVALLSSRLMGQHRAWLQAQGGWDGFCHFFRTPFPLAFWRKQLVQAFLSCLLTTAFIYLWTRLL

Structure (SMILES)	displacement
COc1ccc(-c2cc(C(=O)Nc3c(C)cc(C)cc3C)c3ccccc3n2)cc1OC	2.8%
Cc1ccc(C(C)C)c(OCC(=O)NNC(=O)/C=C/c2ccc3c(c2)OCO3)c1	-1.6%
O=C(Nc1ccc(OC(F)(F)F)cc1)c1ccc(Cl)cc1Cl	0.8%
O=[N+]([O-])c1cccc(-c2nc(C3COc4ccccc4O3)cs2)c1 (centres undefined)	5.6%
O=S(=O)(c1ccc(Br)c2ccccc12)N1CCN(Cc2ccccc2)CC1	-9.8%
Cc1ccc(N(CC(=O)NCc2ccc(Cl)cc2)S(C)(=O)=O)cc1	-2.3%
O=[N+]([O-])c1ccc(Sc2nnnn2-c2ccccc2)nc1	-10%
COc1ccc(CCNC(=O)C2C3CCC(O3)C2C(=O)O)cc1OC (centres undefined)	-1.3%
N#CC(C#N)=C1CCCc2ccccc2N1	6.6%
O=c1oc2c(O)c(O)ccc2c2c1CCC2	26.2%
CCCOc1ccc(C(=O)Nc2ccc(C)cc2[N+](=O)[O-])cc1	-5.3%
CCN1CCN(CC(O)CN2CCn3c4c(c5cc(C)ccc53)CCCC42)CC1 (centres undefined)	24.7%
Cc1ccc2nc(-c3ccc(NC(=O)C4CCC(=O)N4)cc3)sc2c1 (centres undefined)	-32.2%
Cc1ccc(C(=O)/C=C/c2ccc3c(c2)OCO3)cc1	8.8%
C=C(C)C(C)(C#CCN1CCCCC1)OCCC#N (centres undefined)	-8%
Nc1cc(S(=O)(=O)O)cc2cccc(S(=O)(=O)O)c12	7.8%
Cc1no[n+]([O-])c1COc1ccccc1C=O	16.7%
O=C(NNC(=O)c1cccnc1)c1ccc(Br)cc1	3.9%
Cc1ccccc1OC1=NS(=O)(=O)c2ccccc21	-5.9%
Cn1c(=O)c2c(nc(Sc3nc4ccccc4n3Cc3ccccc3)n2C)n(C)c1=O	8.7%
N#CC1=C(SCc2ccccc2)NC(=O)C(C#N)C12CCCCC2 (centres undefined)	3.4%
CC(C)=C(NC(=O)c1ccccc1)C(=O)N1CCOCC1	3%

Structure (SMILES)	displacement
CCCOC(=O)C1=C(C)NC2=C(C(=O)CC(c3ccc(OC)cc3)C2)C1c1ccc([N+](=O)[O-])cc1 (centres undefined)	-11.8%
CC(Oc1ccccc1)C(=O)Nc1cc([N+](=O)[O-])ccc1Cl (centres undefined)	-1.9%
Nc1nnc(-c2ccccc2-c2nnc(N)s2)s1	5.7%
COC(=O)CN(c1ccc(OC)cc1OC)S(=O)(=O)c1ccccc1	-1.6%
COc1cc(C(=O)N2CCN(Cc3cccc(C(F)(F)F)c3)CC2)cc(OC)c1OC	3.1%
Cc1ccc(OCc2nnc(NC(=O)Nc3ccccc3)s2)c(C)c1	2.3%
COc1ccc(/C(N)=N/OC(=O)c2cccc([N+](=O)[O-])c2C)cc1	-2.9%
CCOC(=O)c1c(NC(=O)/C=C/c2ccccc2)sc(C(=O)N(CC)CC)c1C	-1.5%
C/C(=N\NC(=O)COc1cccc(C)c1)c1ccc(Br)cc1	6.7%
C=CCN1CN=C(NS(=O)(=O)c2ccc(C)cc2)NC1	-1.3%
CC(C)Oc1ccc(/C=N/NC(=O)C(=O)NC2CCCCC2)cc1	11.9%
Cc1c(Cl)cccc1-c1ccc(C(=O)Nc2cccc(Cl)c2Cl)o1	2.2%
O=C(COc1ccc2c(c1)oc(=O)c1ccccc12)c1ccc(F)cc1	8.1%
Cc1c(NC(=O)/C=C/c2ccccc2)c(=O)n(-c2ccccc2)n1C	2.7%
O=C(O)COc1ccc2c3c(c(=O)oc2c1)CCCC3	-5.4%
O=C(CN1C(=O)S/C(=C/c2ccccc2F)C1=O)Nc1ccccc1	10.1%
O=C(NCc1ccccc1Cl)c1cccc(Br)c1	2.8%
COC(=O)c1ccccc1NC(=O)CSc1nc2c(c(=O)n(C)c(=O)n2C)n1C	10.4%
Cc1ccc(C(C)C)c(OCC(=O)Nc2ccc(F)c([N+](=O)[O-])c2)c1	1.2%
C=CCOC(=O)C1=C(C)NC(C)=C(C(=O)OCC=C)C1c1cccc([N+](=O)[O-])c1	14.2%
CCCC(=O)Nc1ccc(NC(=O)c2cccc(Cl)c2)cc1	8.5%
c1ccc(Cn2ncc3c(N4CCOCC4)ncnc32)cc1	3.2%

Structure (SMILES)	displacement
CCN1C(=O)/C(=C/c2ccc(C)o2)C(=O)NC1=S	8.8%
O=C(/C=C/c1ccccc1Cl)Nc1ccc([N+](=O)[O-])cc1	-0.8%
O=[N+]([O-])c1cccc(S(=O)(=O)Nc2ccccc2-c2ccccc2)c1	-2.6%
Cc1ccc(N(CC(=O)Nc2ccc3ccccc3c2)S(=O)(=O)c2ccc(F)cc2)cc1	8.3%
O=C(Nc1ccc(Br)cc1)c1ccccc1O	3.7%
COC(=O)C1C(=O)CC(C)(O)C(C(=O)OC)C1/C=C/c1ccccc1 (centres undefined)	-7.4%
Cc1oc(-c2nc3ccccc3n2C)cc1C(=O)c1ccccc1	14.1%
CCCCOc1cccc(C(=O)Nc2ccc(I)cc2Cl)c1	-0.6%
CCCCOC(=O)Nc1nnc(-c2ccco2)s1	-0.3%
COC(=O)CNC(=O)c1cccc([N+](=O)[O-])c1	-3.3%
CCOC(=O)c1c(C)oc2ccc(OC(=O)c3ccccc3OC)cc12	8.9%
COc1cc(/C=C2\C(=O)NC(=S)N(c3ccc(C(C)C)cc3)C2=O)ccc1O	3.1%
CCOC(=O)C1=C(C)NC(=O)/C1=C\c1cccs1	108%
N=C1S/C(=C\c2ccc(-c3ccc([N+](=O)[O-])cc3)o2)C(=O)N1c1ccc2c(c1)OCO2	-9.3%
Cc1cccc(-c2nc3ccccc3[nH]2)c1	10.9%
FC(F)(F)COc1nc(N2CCOCC2)nc(N2CCN(Cc3ccccc3)CC2)n1	14.3%
Cc1cc(C)n(Cc2cc(C)c(Cn3nc(C)cc3C)cc2C)n1	3.2%
CCCN(CCC)C(=O)c1cnn(-c2ccccc2)c1NC(=O)c1cccc(F)c1	2.4%
CCOc1cc(/C=N/n2cnnc2)ccc1OCc1ccc(F)cc1	-1.9%
COc1cc(/C=N\N2CCN(c3ccccc3OC)CC2)ccc1OCc1ccccc1	-3.9%
O=C1CC(c2ccccc2)CC2=C1C(c1cccs1)Nc1ccc(C(=O)c3ccccc3)cc1N2 (centres undefined)	29.2%
CCOC(=O)N1N=C(CC)CC1(O)c1ccncc1 (centres undefined)	-0.2%

Structure (SMILES)	displacement
Cc1ccc(C(=O)Nc2ccc(C(N)=O)cc2)cc1C	-2.8%
COc1ccc(CCNC(=O)COc2ccc3ccccc3c2)cc1OC	-21.6%
CC(=O)Nc1ccc(-c2ccc(OCc3ccccc3)cc2)cc1	-12%
O=C1NC(=Nc2ccc(O)cc2)S/C1=C/C=C/c1ccccc1	-5.6%
COc1ccc(Br)cc1C(=O)Nc1ccc2nn(-c3ccc(F)cc3)nc2c1	5.4%
Cc1ccc(COc2ccc(/C=N/NC(=O)CN3CCCCC3)cc2)cc1	6.5%
O=C(O)c1cccc(N2Cc3ccc(Br)cc3C2)c1	4.4%
Cc1oc2ccc(OCc3ccccc3Cl)cc2c1C(=O)O	5.8%
Cc1ccc(-c2cc(C(F)(F)F)n3ncc(C(=O)Nc4cccnc4)c3n2)cc1	0.9%
O=C(COc1ccc(Br)cc1)Nc1ccc(Cl)c(Cl)c1	7.3%
CC(=O)/C(=C1\NC(C)(C)Cc2ccccc21)c1ccccc1	-10.4%
O=C(Nc1ccc(Cl)c(Cl)c1)Nc1ccccc1C(=O)O	12.8%
CCOCCOC(=O)C1=C(C)NC2=C(C(=O)CC(C)(C)C2)C1c1cc([N+](=O)[O-])ccc1Cl (centres undefined)	-4.6%
Cc1ccccc1OCC(=O)O/N=C(\N)Cc1cccc2ccccc12	14.8%
NC(=O)c1cccc(N=Cc2ccccc2[N+](=O)[O-])c1	-9.8%
O=C(CSc1nc2ccc(N3C(=O)c4ccccc4C3=O)cc2s1)Nc1ccc([N+](=O)[O-])cc1	-36.3%
CC(=O)c1cccc(N2C(=O)c3ccc(Oc4ccc([N+](=O)[O-])cc4)cc3C2=O)c1	19.1%
O=C1/C(=C/c2ccc(Br)cc2)SC(=S)N1Nc1ccccc1	-1.3%
COc1ccc2c(c1)-c1c(ssc1=Nc1ccc(S(=O)(=O)Nc3nccs3)cc1)C(C)(C)N2	4.6%
Cc1cc(Cl)ccc1NC(=O)C(N)=O	1.8%
Cc1ccc(S(=O)(=O)Nc2ccccc2I)cc1[N+](=O)[O-]	17.1%
Cc1ccc(N(CC(=O)N=Nc2c(O)[nH]c3ccccc23)S(=O)(=O)c2ccccc2)cc1	13.9%

Structure (SMILES)	displacement
CCOC(=O)c1c(NC(=O)COc2ccccc2C)sc(C(=O)N2CCCCC2)c1C	-2.3%
O=C(O)c1cc(NS(=O)(=O)c2ccccc2)cc(C(=O)O)c1	3.9%
Cc1cccc(NC(=O)c2c(NC(=O)c3ccc([N+](=O)[O-])cc3)sc3c2CCCC3)c1	3.7%
Cc1ccccc1OCC(=O)Nc1ccc(-c2ccccc2)cc1	13.2%
Cc1ccc(S(=O)(=O)N/N=C/c2ccc([N+](=O)[O-])cc2)cc1	0.3%
Cc1ccccc1C(=O)NN1C(=O)/C(=C\c2cccnc2)SC1=S	15.3%
COc1ccc2oc(C)c(C(C)=O)c2c1	13%
COc1ccc(S(=O)(=O)N(CCc2ccccc2)CC(=O)Nc2ccc(C)c(C)c2)cc1	-23.7%
Cc1ccc(N2CCN(C(=S)Nc3ccccc3)CC2)cc1	2.6%
CCOC(=O)C1CCN(C2CC(=O)N(c3cccc(Br)c3)C2=O)CC1 (centres undefined)	11.3%
CCN(CC)S(=O)(=O)c1cc(C(=O)c2ccc(Br)cc2)ccc1C	-9%
O=C(OC1CCCCC1)c1ccc(NS(=O)(=O)c2ccc([N+](=O)[O-])cc2)cc1	0.7%
Cn1c(/C=C/c2cn(C)c3ccccc23)nc2ccccc2c1=O	40.9%
CCOC(=O)CC(NC(=O)c1nc[nH]c1[N+](=O)[O-])C(=O)OCC (centres undefined)	-0.7%
O=C1CSC(=S)N1/N=C/c1ccccc1OS(=O)(=O)c1ccccc1	12.7%
CC(=O)Nc1cc(-c2ccc(F)cc2)[nH]n1	14.7%
CC(C)Oc1ccc(CN(C)C)cc1CN(C)C	2.1%
Cc1ccc(NC(=O)C2CC(=O)N(c3ccc(F)cc3)C2)c(C)c1 (centres undefined)	-11%
COc1ccc(C(=O)N(c2ccccc2)C2CC(C)Nc3ccccc32)cc1 (centres undefined)	14.5%
O=C(COC(=O)c1cccc(S(=O)(=O)N2CCOCC2)c1)c1ccccc1	-8.5%
CCCN(CCC)C(=O)CC12CC3CC(C1)CC(CC(=O)N(CCC)CCC)(C3)C2	10.5%
